Source: publication PMC4336329 (PLoS ONE, 2015)
Hit rate of the full screen: of about 310,000 compounds, about 2,200 (0.71%) showed an effect of 50% or more. Effects have a minus sign here. The list shows a part of the results.

Target: human ether-à-go-go-related gene (hERG) potassium channel (human, UniProt Q12809)
Test: primary screen, population patch clamp on CHO cells stably expressing hERG

human ether-à-go-go-related gene (hERG) potassium channel, sequence (Q12809 whole entry, looked up): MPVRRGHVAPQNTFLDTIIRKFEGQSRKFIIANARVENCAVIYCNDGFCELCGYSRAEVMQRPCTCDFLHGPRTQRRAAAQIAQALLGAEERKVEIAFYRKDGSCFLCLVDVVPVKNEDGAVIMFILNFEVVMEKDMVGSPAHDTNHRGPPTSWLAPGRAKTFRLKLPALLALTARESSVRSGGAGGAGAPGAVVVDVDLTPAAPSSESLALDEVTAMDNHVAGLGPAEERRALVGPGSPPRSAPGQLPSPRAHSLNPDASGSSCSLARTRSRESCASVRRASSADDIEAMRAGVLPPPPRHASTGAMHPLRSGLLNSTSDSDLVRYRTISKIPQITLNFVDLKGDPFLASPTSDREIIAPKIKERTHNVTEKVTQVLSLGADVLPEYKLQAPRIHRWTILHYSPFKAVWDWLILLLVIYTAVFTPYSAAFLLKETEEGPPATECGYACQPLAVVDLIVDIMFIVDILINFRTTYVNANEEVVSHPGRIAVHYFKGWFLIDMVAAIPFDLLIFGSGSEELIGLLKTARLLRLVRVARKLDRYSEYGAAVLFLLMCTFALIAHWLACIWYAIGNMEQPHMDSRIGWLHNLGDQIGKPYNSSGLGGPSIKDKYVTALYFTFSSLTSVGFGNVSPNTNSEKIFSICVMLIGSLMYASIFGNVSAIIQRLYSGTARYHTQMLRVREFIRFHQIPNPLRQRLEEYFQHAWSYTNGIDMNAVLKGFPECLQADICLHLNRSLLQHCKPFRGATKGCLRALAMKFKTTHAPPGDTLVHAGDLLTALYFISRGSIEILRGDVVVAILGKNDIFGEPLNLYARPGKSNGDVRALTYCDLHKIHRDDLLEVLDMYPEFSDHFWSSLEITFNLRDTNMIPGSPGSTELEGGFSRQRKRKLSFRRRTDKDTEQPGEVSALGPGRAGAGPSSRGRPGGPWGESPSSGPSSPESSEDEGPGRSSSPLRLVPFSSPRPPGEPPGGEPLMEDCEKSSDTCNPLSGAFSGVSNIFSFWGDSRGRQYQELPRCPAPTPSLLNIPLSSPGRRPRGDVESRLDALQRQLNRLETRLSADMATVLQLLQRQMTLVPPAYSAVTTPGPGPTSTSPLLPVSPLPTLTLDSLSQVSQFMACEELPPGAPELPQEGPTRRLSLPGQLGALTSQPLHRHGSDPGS

SMILES	hERG current change (%, negative = inhibition) at 1uM
COC(=O)c1c(NC(=O)CN(c2ccc(C)c(C)c2)S(C)(=O)=O)sc2c1CCCC2	6.14%
CC1CCCCN1C(=O)N[C@@H](Cc1ccccc1)C(=O)O (stereo partly shown)	3.42%
CC12CCC(C(=O)N(NC(=O)c3cc(Cl)ccc3O)C1=O)C2(C)C (stereo not shown)	16.7%
CSCCC1NC(=O)N(CC(=O)Nc2c(C(C)C)cccc2C(C)C)C1=O (stereo not shown)	11.7%
COc1cc2c(cc1OC)C(C(=O)Nc1ccc3c(c1)OCCO3)C(c1cccnc1)N(C)C2=O (stereo not shown)	5.98%
COc1ccc(-c2nc(CS(=O)(=O)CC(=O)NCc3cccc(OC)c3OC)c(C)o2)cc1	1.71%
Cn1cc(C=C(C#N)C#N)c2ccccc21	4.92%
Cc1ccccc1S(=O)(=O)Cc1ccc(C(=O)NCCCOC(C)C)o1	3.93%
Cc1cc(=O)oc2cc(OC(=O)c3nn(C(C)C)c(=O)c4ccccc34)ccc12	11%
COC(=O)c1ccccc1S(=O)(=O)N1CCC(C(=O)NC2=NCCS2)CC1	-0.334%
CCCOC(=O)C1[C@H]2C(=O)N(C(C)c3ccc(OC)cc3)C[C@]23C=C[C@H]1O3 (stereo partly shown)	7.4%
O=C1c2ccccc2C(=O)N1Cc1nc2ccccc2o1	15.8%
COc1ccc(CCNC(=O)CCS(=O)(=O)c2ccc3c(c2)NC(=O)CO3)cc1OC	8.71%
CCCC(=O)OC/C(O)=C(\C#N)c1nc2ccccc2[nH]1	16%
COC1(OC)N=C(NC(=O)Nc2ccccc2)C2(C#N)C(c3ccccc3)C12C#N (stereo not shown)	12.1%
C=CCn1c(SCC2CCCCO2)nc2sc(CC)cc2c1=O (stereo not shown)	7.11%
O=C(ON=C1CCN(S(=O)(=O)c2ccccc2)CC1)c1cccc(Cl)c1	5.55%
ONC(=Nc1ccc(Cl)cc1)c1ccccc1Cl	7.69%
COC(=O)c1nc(-c2ccc3c(n2)C(=O)C(N)=C(OC)C3=O)c(N)c(-c2ccc(OC)c(OC)c2O)c1C	9.36%
Cc1ccc(C(C)(C)C)c(SCC(=O)Nc2nnc(C)s2)c1	5.63%
COC(=O)c1ccc(CSc2nnc(C)s2)cc1	10.7%
Cc1cc(C(=O)NN=C(Cc2ccccc2)Cc2ccccc2)c(C)o1	4.29%
COC(=O)C1=C(c2ccc(F)cc2F)C[C@@H]2CC[C@H]1N2C(=O)N1CCOCC1	12.6%
COc1ccccc1OCCCCn1ncc2ccc(OC)c(OC)c2c1=O	10.2%
O=C(CN1C(=O)CN=C(c2ccccc2Cl)c2cc(Cl)ccc21)NCc1ccco1	11.8%
COc1ccc(Cn2c(O)c(/C=N/NC(=O)c3ccccc3)c(=O)[nH]c2=O)cc1	-7.09%
CC(C)C(O)(C(=O)NNc1ccccc1)C(C)C	7.85%
CC1=C(C(=O)NCc2ccccn2)C2(CCC(C)CC2)OC1=O (stereo not shown)	-1.16%

SMILES	hERG current change (%, negative = inhibition) at 1uM
COc1ccc(NC(=O)CSCC(=O)Nc2ccc(S(=O)(=O)N3CCCC3)cc2)cc1	-1.02%
Cc1ccc(C(=O)CSc2nc3cc(S(=O)(=O)N4CCOCC4)ccc3o2)cc1	11.2%
O=C(Cn1nc(C(=O)O)c2ccccc2c1=O)Nc1ccc2c(c1)C(=O)c1ccccc1C2=O	6.96%
O=C1NCCO1	-4.27%
COc1ccc(C2C(C#N)=C(N)Oc3cc(O)ccc32)cc1C (stereo not shown)	-1.73%
Cc1ccc(C(=O)C2Oc3ccccc3C3CC(c4ccc(C)cc4)=NN23)cc1 (stereo not shown)	11.1%
O=C(c1cnc2n(c1=O)CCS2)N1CCCc2ccccc21	3.16%
CC(C)[C@H](NC(=O)OC(C)(C)C)c1nnc(SCc2cccc(F)c2)o1	-4.82%
COC(=O)CN(c1nc(C)c(Br)c(OC)n1)S(=O)(=O)c1ccc(C)cc1	5.18%
O=C(O)c1ccccc1C(=O)Nc1cc(C(F)(F)F)ccc1N1CCCC1	-4.27%
Cc1ccccc1N(CC(=O)NC1CCCC1)C(=O)C1(C)CC(=O)N=C2C=CC=CN21 (stereo not shown)	16.9%
COc1cc(C(=O)Nc2c(C)cc(C)cc2C)c([N+](=O)[O-])cc1OC	11%
Nc1cc(C(=O)O)c(N)c2c1C(=O)c1ccccc1C2=O	12.8%
Cc1cc(=O)oc2cc(OCC(=O)N3CCC(C(N)=O)CC3)ccc12	9.4%
COCCNC(=S)Nc1ccc(N2CCOCC2)c(S(=O)(=O)Nc2ccccc2OC)c1	3.6%
CC(C)C(C(=O)N1CCOCC1)N1C(=O)c2ccccc2C1=O (stereo not shown)	11.3%
O=C(CSc1n[nH]c(-c2ccncc2)n1)Nc1ccc(Cl)c(Cl)c1	14.8%
COc1ccc(Nc2nc(-c3ccccc3)nc3ccccc23)cc1.Cl	17.9%
C=CCn1cc(C=C2C(=O)NC(=O)NC2=O)c2ccccc21	7.96%
COc1cccc(Oc2ccc(OC)cc2C(=O)O)c1	14.2%
Cn1c(-c2ccccc2)cc2onc(-c3ccccc3)c2c1=O	18.4%
CCOc1cc(CN2CCCC(CNC(=O)c3ccc(F)cc3)C2)ccc1OC (stereo not shown)	-17%
CCCCN(Cc1ccccc1)C(=O)C1CCCN(S(=O)(=O)c2cnc[nH]2)C1 (stereo not shown)	10.7%
COc1ccc(OC)c(CN2CCN(C(=O)CCC(=O)c3cccs3)CC2)c1	10.2%
C=CCSc1nnc(COc2ccc(=O)n(-c3ccccc3)n2)n1CC	6.6%
O=C(NC1CCCCCC1)c1ccc(N2CCCC2=O)cc1	8.15%
c1ccc(OCc2nnc3sc(-c4cccs4)nn23)cc1	3.89%
